IC50 is the fitted dose that halves viability relative to control wells, and lower means more sensitive; where the fit passes the top or lowest dose, that dose stands as a limit. AUC sums up the same curve from the lowest dose to the 256-fold higher top dose; values near 1 show little effect. A top dose marked as inferred was calculated from the reported fits. For part of these data: Drugs with an entry number were screened twice under separate entries, and the two screens often disagree.
How the values were obtained:
Experiment in all cases: Viability of human cancer cell lines after 72 h of drug (GDSC screen)
Shikonin = compound: CC(C)=CC[C@@H](O)C1=CC(=O)c2c(O)ccc(O)c2C1=O [Shikonin]; details: top dose 16 µM; top dose inferred
Protocol: (§1)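 Human cancer cell lines in 384-well plates, medium with 10% serum, drug for 72 h over a 256-fold dose range (nine 2-fold or five 4-fold steps up to the top dose). Adherent lines were fixed and stained with the nucleic acid dye Syto60, suspension lines read with resazurin; signal relative to control wells, capped at 0 and 100%. One two-parameter sigmoid per drug and line, fitted in a mixed model over all curves with the slope shared within a line.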

Olaparib = compound: O=C(c1cc(Cc2n[nH]c(=O)c3ccccc23)ccc1F)N1CCN(C(=O)C2CC2)CC1 [Olaparib]
Protocol: as §1

Wee1 inhibitor 681640 = compound: O=C1NC(=O)c2c1c(-c1ccccc1Cl)cc1[nH]c3ccc(O)cc3c21 [Wee1 inhibitor 681640]; details: top dose 2 µM; top dose inferred
Protocol: as §1

VX-702 = compound: NC(=O)c1ccc(N(C(N)=O)c2c(F)cccc2F)nc1-c1ccc(F)cc1F [VX-702]; details: top dose 2 µM; top dose inferred
Protocol: as §1

CGP-082996 (CINK4) = compound: CCNc1cc(NC2CCC(O)CC2)nc(Nc2ccc3c(ccn3Cc3ccccc3)c2)n1 [CGP-082996 (CINK4)]; details: top dose 5.12 µM; top dose inferred
Protocol: as §1

XMD8-85 = compound: COc1cc(N2CCN(C)CC2)ccc1Nc1ncc2c(n1)N(C)c1ccccc1C(=O)N2C [XMD8-85]; details: top dose 8 µM; top dose inferred
Protocol: as §1

A-770041 = compound: COc1cc(-c2nn([C@H]3CC[C@H](N4CCN(C(C)=O)CC4)CC3)c3ncnc(N)c23)ccc1NC(=O)c1cc2ccccc2n1C [A-770041]; details: top dose 5.12 µM; top dose inferred
Protocol: as §1

BMS-536924 = compound: Cc1cc(N2CCOCC2)cc2[nH]c(-c3c(NC[C@@H](O)c4cccc(Cl)c4)cc[nH]c3=O)nc12 [BMS-536924]
Protocol: as §1

BIRB 0796 = compound: Cc1ccc(-n2nc(C(C)(C)C)cc2NC(=O)Nc2ccc(OCCN3CCOCC3)c3ccccc23)cc1 [BIRB 0796]; details: top dose 10 µM; top dose inferred
Protocol: as §1

SB-525334 = compound: Cc1cccc(-c2[nH]c(C(C)(C)C)nc2-c2ccc3nccnc3c2)n1 [SB-525334]; details: top dose 20 µM; top dose inferred
Protocol: as §1

HG-5-113-01 = compound: CNC(=O)c1ccc(Nc2cc(Nc3ccccc3S(=O)(=O)C(C)C)c3cc[nH]c3n2)nc1 [HG-5-113-01]; details: top dose 10 µM; top dose inferred
Protocol: as §1

[1] = top dose 5 µM, screen: GDSC drug entry 1017, top dose inferred
[2] = top dose 10 µM, screen: GDSC drug entry 1495
[3] = top dose 4 µM, screen: GDSC drug entry 1091, top dose inferred
[4] = top dose 5.12 µM, screen: GDSC drug entry 62

| Cell Line | AUC (Shikonin) | IC50 (Shikonin) | AUC (Olaparib; [1]) | IC50 (Olaparib; [1]) | AUC (Olaparib; [2]) | IC50 (Olaparib; [2]) | AUC (Wee1 inhibitor 681640) | IC50 (Wee1 inhibitor 681640) | AUC (VX-702) | IC50 (VX-702) | AUC (CGP-082996 (CINK4)) | IC50 (CGP-082996 (CINK4)) | AUC (XMD8-85) | IC50 (XMD8-85) | AUC (A-770041) | IC50 (A-770041) | AUC (BMS-536924; [3]) | IC50 (BMS-536924; [3]) | AUC (BMS-536924; [4]) | IC50 (BMS-536924; [4]) | AUC (BIRB 0796) | IC50 (BIRB 0796) | AUC (SB-525334) | IC50 (SB-525334) | AUC (HG-5-113-01) | IC50 (HG-5-113-01) |
| --- | --- | --- | --- | --- | --- | --- | --- | --- | --- | --- | --- | --- | --- | --- | --- | --- | --- | --- | --- | --- | --- | --- | --- | --- | --- | --- |
| SUP-M2 (anaplastic large cell lymphoma, suspension) | 0.665 | 2.55 µM | 0.893 | 3.48 µM | 0.841 | 4.7 µM | 0.992 | > 2 µM | 0.994 | > 2 µM | 0.909 | 4.11 µM | 0.988 | > 8 µM | 0.988 | > 5.12 µM | 0.67 | 0.656 µM | 0.898 | 3.72 µM | 0.994 | > 10 µM | 0.992 | > 20 µM |  |  |
| SUP-T1 (T-cell lymphoblastic leukaemia, suspension) | 0.591 | 1.74 µM | 0.964 | > 5 µM | 0.969 | > 10 µM | 0.977 | > 2 µM | 0.977 | > 2 µM | 0.904 | > 5.12 µM | 0.705 | 1.78 µM | 0.981 | > 5.12 µM | 0.98 | > 4 µM | 0.976 | > 5.12 µM | 0.913 | > 10 µM | 0.978 | > 20 µM |  |  |
| SW872 (soft tissue, adherent) | 0.335 | 0.365 µM |  |  | 0.979 | > 10 µM |  |  |  |  | 0.954 | > 5.12 µM | 0.879 | 6.82 µM | 0.559 | 0.456 µM | 0.879 | 3.43 µM | 0.795 | 2.12 µM |  |  | 0.971 | > 20 µM | 0.787 | 3.9 µM |
| SW954 (urogenital system, adherent) | 0.449 | 0.725 µM | 0.967 | > 5 µM | 0.881 | > 10 µM | 0.608 | 0.248 µM | 0.983 | > 2 µM | 0.898 | > 5.12 µM | 0.819 | 4.61 µM | 0.756 | 1.77 µM |  |  | 0.692 | 1.12 µM | 0.927 | > 10 µM | 0.946 | > 20 µM |  |  |
| SW962 (urogenital system, adherent) | 0.468 | 0.803 µM | 0.979 | > 5 µM | 0.944 | > 10 µM | 0.979 | > 2 µM | 0.975 | > 2 µM | 0.845 | > 5.12 µM | 0.876 | > 8 µM | 0.874 | > 5.12 µM | 0.87 | > 4 µM | 0.695 | 1.31 µM | 0.974 | > 10 µM | 0.927 | > 20 µM |  |  |
| TE-6 (oesophagus, adherent) | 0.681 | 3.51 µM | 0.965 | > 5 µM | 0.939 | > 10 µM | 0.968 | > 2 µM | 0.986 | > 2 µM | 0.943 | > 5.12 µM | 0.908 | > 8 µM | 0.908 | > 5.12 µM | 0.974 | > 4 µM | 0.944 | > 5.12 µM | 0.96 | > 10 µM | 0.951 | > 20 µM |  |  |
| TE-15 (oesophagus, suspension) | 0.357 | 0.38 µM | 0.985 | > 5 µM | 0.955 | > 10 µM | 0.938 | > 2 µM | 0.984 | > 2 µM | 0.853 | 4.81 µM | 0.914 | > 8 µM | 0.503 | 0.327 µM | 0.979 | > 4 µM | 0.636 | 0.803 µM | 0.984 | > 10 µM | 0.885 | > 20 µM |  |  |
| U-698-M (B-cell leukaemia, suspension) | 0.285 | 0.246 µM | 0.987 | > 5 µM | 0.975 | > 10 µM | 0.905 | > 2 µM | 0.983 | > 2 µM | 0.919 | > 5.12 µM | 0.961 | > 8 µM | 0.971 | > 5.12 µM | 0.977 | > 4 µM | 0.933 | > 5.12 µM | 0.966 | > 10 µM | 0.879 | > 20 µM |  |  |
| UACC-257 (melanoma, adherent) | 0.641 | 2.71 µM | 0.978 | > 5 µM | 0.926 | > 10 µM | 0.982 | > 2 µM | 0.979 | > 2 µM | 0.874 | > 5.12 µM | 0.811 | 5.57 µM | 0.948 | > 5.12 µM | 0.914 | > 4 µM | 0.812 | 3.63 µM | 0.957 | > 10 µM | 0.657 | 3.81 µM |  |  |
| WSU-NHL (lymphoid neoplasm, suspension) | 0.316 | 0.328 µM | 0.987 | > 5 µM | 0.968 | > 10 µM | 0.979 | > 2 µM | 0.966 | > 2 µM | 0.982 | > 5.12 µM | 0.904 | > 8 µM | 0.987 | > 5.12 µM | 0.97 | > 4 µM | 0.974 | > 5.12 µM | 0.965 | > 10 µM | 0.973 | > 20 µM |  |  |
| YT (lymphoid neoplasm, suspension) | 0.339 |  | 0.989 | > 5 µM | 0.975 | > 10 µM | 0.992 | > 2 µM | 0.955 | > 2 µM | 0.937 | > 5.12 µM | 0.793 | 3.04 µM | 0.992 | > 5.12 µM | 0.966 | > 4 µM | 0.992 | > 5.12 µM | 0.981 | > 10 µM | 0.971 | > 20 µM |  |  |

— the supplement of paper PMC4967469
